Out of some 420,000 compounds screened, about 64,000 (15%) were called active. The shares of active, inactive and inconclusive entries below differ from those in the screen. Calls come from the whole dose curve; as a rule, active = well fitted inhibition curve with a large enough effect; inconclusive = small, poorly fitted or top-dose-only effect; inactive = flat fitted curve, though single readings scatter. Potencies of inconclusive entries are left out as doubtful fits.
Assay: qHTS for Inhibitors of human tyrosyl-DNA phosphodiesterase 1 (TDP1): qHTS in cells in absence of CPT; note: nearly all actives have a fitted effect of over 55% in size
Conditions: DT40 Tdp1-/- hTDP1 cells, no CPT, ATP luminescence, 48 h
In short: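 DT40 Tdp1-/-;hTDP1 cells, no CPT (DMSO vehicle only), 400 cells/well; compounds pin-transferred; ≥48 hr, 37 °C; CellTiter-Glo 30 min RT dark, luminescence read.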

[1] = activity change, negative = growth inhibition: at 46.2 µM (top of the series) unless noted
% is set by controls: 0 for no effect and ±100 for the full control effect; potency is the fitted concentration of half-maximal effect; tags give direction and shape of the fitted curve.

Which Potency [1] does the source give for CCc1nc(Nc2ccccc2)c2oc3ccccc3c2n1 here?
The Potency was inconclusive [inhibitor, partial curve].

For COc1ccc2cc(C3(C)NC(=O)N(CC(=O)N4CCCCC4)C3=O)ccc2c1 (stereo not given), which Potency [1] is on record?
Its Potency is inconclusive [inhibitor, single point].

With CCC(C)NC(=O)c1ccc2nc(Cc3ccc(OC)cc3)oc2c1 (stereo not given) as the compound, how does the Potency [1] read?
The Potency was inconclusive [inhibitor, single point].

For CCSc1ccc(-c2cc(NC=O)c3ncc(-c4cccc(C(=O)N(C)C)c4)n3c2)cc1, which Potency [1] is on record?
Its Potency is inconclusive [inhibitor, single point].

With Cc1cccc(NC(=O)CCCN2C(=O)C(c3ccccc3)Oc3cccnc32)c1C (stereo not given) as the compound, how does the Potency [1] read?
The Potency was inconclusive [inhibitor, single point].

Which Potency [1] does the source give for O=C(OCc1ccccc1)/C(=C/c1ccc(Cl)cc1)NC(=O)c1ccccc1Cl here?
Its Potency is inconclusive [inhibitor, partial curve].

With COc1cccc(Cn2c(=O)c(C)nc3cnc(N4CCNCC4)nc32)c1 as the compound, how does the Potency [1] read?
The Potency was inconclusive [inhibitor, single point].

For COc1ccc(C(NC(=O)C2CCN(CCCOc3ccccc3)CC2)c2cccs2)cc1 (stereo not given), which Potency [1] is on record?
The Potency was inconclusive [inhibitor, single point].

Which Potency [1] does the source give for COc1ccc(NC(=O)CSCc2cnn(-c3ccccc3)c2-n2cccc2)cc1 here?
The Potency was active: 16.4 µM.

For Cc1ccc(C(=O)COC(=O)COc2ccccc2C)cc1, which Potency [1] is on record?
Its Potency is “inactive”.

Which Potency [1] does the source give for CCn1ccc2cc(S(=O)(=O)N3CCC(C(=O)NCCc4ccc(C)cc4)CC3)ccc21 here?
The Potency was inconclusive [inhibitor, single point].

Which Potency [1] does the source give for CC(C)c1cccc(-c2ccc3c(c2)S(=O)(=O)c2cccc(C(=O)NCc4ccco4)c2C3=O)c1 here?
Its Potency is inconclusive [inhibitor, single point].

For CCOC(=O)C1=C(C)Nc2nc(SCc3cccnc3)nn2C1c1ccc(OC)cc1 (stereo not given), which Potency [1] is on record?
Its Potency is inconclusive [inhibitor, single point].

For COc1cc(C(=O)N2CCN(CCc3ccccn3)CC2)cc(OC)c1OC, which Potency [1] is on record?
The Potency was “inactive”.

For CC(c1cccs1)N(Cc1ccco1)C(=O)Nc1ccc(Cl)c(Cl)c1 (stereo not given), which Potency [1] is on record?
Its Potency is inconclusive [inhibitor, single point].

With Cc1onc(-c2c(Cl)cccc2Cl)c1C(=O)c1c[nH]c(C(=O)NCC2CCCO2)c1 (stereo not given) as the compound, how does the Potency [1] read?
Its Potency is active: 13 µM.

Which Potency [1] does the source give for COc1cccc(CNC(=O)c2c(C)nn(-c3ccccc3)c2C)c1 here?
Its Potency is inconclusive [inhibitor, single point].

Which Potency [1] does the source give for CCN(CC)S(=O)(=O)c1ccc(C(=O)NC(=S)N2CCCCC2C)cc1 (stereo not given) here?
Its Potency is active: 16.4 µM.

For O=C1Nc2ccc([N+](=O)[O-])cc2OC1CCN1CCN(Cc2ccccc2)CC1 (stereo not given), which Potency [1] is on record?
Its Potency is inconclusive [inhibitor, partial curve, poor fit].

For Nc1c(C(=O)NCc2ccc3c(c2)OCO3)nnn1-c1ccc(OC(F)(F)F)cc1, which Potency [1] is on record?
Its Potency is inconclusive [inhibitor, partial curve, poor fit].

Which Potency [1] does the source give for Cc1ccc(C)c(S(=O)(=O)NCc2ccc(C(=O)N3CCC(Cc4ccccc4)CC3)cc2)c1 here?
Its Potency is inconclusive [inhibitor, single point].

For CCOc1ccc2nc(SCC(=O)NC3CCCCC3)[nH]c2c1, which Potency [1] is on record?
Its Potency is inconclusive [inhibitor, partial curve].

With COc1ccc(NS(=O)(=O)c2ccc(C)c(C(=O)N(C)CC(=O)Nc3cccc(OC)c3)c2)cc1 as the compound, how does the Potency [1] read?
The Potency was inconclusive [inhibitor, partial curve].

Which Potency [1] does the source give for C#CC1(NC(=O)NC(C)C)CCCCC1 here?
The Potency was “inactive”.

Which Potency [1] does the source give for Cc1nnc(NC(=O)CSc2nc3c(c(=O)n(C)c(=O)n3C)n2C(C)C)s1 here?
The Potency was “inactive”.

Which Potency [1] does the source give for CC(=O)NNc1nc2ccccc2s1 here?
The Potency was “inactive”.

For O=C(CCC(=O)N/N=C/c1ccc(Br)s1)NCc1ccccc1, which Potency [1] is on record?
Its Potency is inconclusive [inhibitor, single point].

Which Potency [1] does the source give for C/C(=N\O)C(=O)NCc1ccccn1 here?
The Potency was “inactive”.

Which Potency [1] does the source give for Cc1cc(OCC(=O)NC2CCN(C)CC2)ccc1[N+](=O)[O-] here?
The Potency was “inactive”.

Which results are given for Cc1ccc(N(CC(=O)Nc2cc(C)cc(C)c2)S(=O)(=O)c2cccc3nonc23)cc1?
activity change, negative = growth inhibition [1]: inconclusive: -32.2% [inhibitor]; activity change, negative = growth inhibition (at 46.2 µM (top of the series)): inactive: -14.4%

With COc1ccccc1NC(=O)CN1C(=O)C2(SCC(=O)N2c2ccc(C)c(C)c2)c2ccccc21 (stereo not given) as the compound, how does the Potency [1] read?
Its Potency is inconclusive [inhibitor, single point].

With CSCCC(NS(=O)(=O)c1ccc(C)cc1)C(=O)N(C)CC(=O)Nc1ccccc1Br (stereo not given) as the compound, how does the Potency [1] read?
The Potency was inconclusive [inhibitor, single point].

Which Potency [1] does the source give for O=C(CSc1ccc(-c2ccc(F)cc2)nn1)N1CCOCC1 here?
The Potency was “inactive”.

For CC(C)NC(=O)C(=O)NCc1ccccn1, which Potency [1] is on record?
Its Potency is “inactive”.

Which Potency [1] does the source give for CCC(NC(=S)NCc1ccc(F)cc1)c1ccccc1 (stereo not given) here?
Its Potency is inconclusive [inhibitor, single point].

With O=C1Nc2ccc3sc4ccccc4c3c2C1=O as the compound, how does the Potency [1] read?
Its Potency is inconclusive [inhibitor, single point].

Which Potency [1] does the source give for Cc1cccc(NC2=NC(=S)N(CC#N)C23CCCCC3)c1 here?
The Potency was “inactive”.

Which Potency [1] does the source give for COc1cccc(C(=O)Oc2cc(C)[nH]c(=O)c2[N+](=O)[O-])c1 here?
The Potency was “inactive”.

Which Potency [1] does the source give for COc1cc(C2c3cc4c(cc3C(OC3OC5COC(c6cccs6)OC5C(O)C3O)C3COC(=O)C23)OCO4)cc(OC)c1O (stereo not given) here?
The Potency was active: 0.0259 µM.

Which Potency [1] does the source give for CCc1nc2c(OCc3ccc(C(=O)OC)cc3)cccn2c1N(C)C(=O)c1ccc(C)cc1 here?
The Potency was active: 18.4 µM.

For Nc1nc(SCC(=O)Nc2ccc(C(F)(F)F)cc2)[nH]c(=O)c1NC(=O)c1ccc(F)c(F)c1, which Potency [1] is on record?
Its Potency is “inactive”.

With COc1cc(C(=O)Nc2cc(OC)c(OC)c(OC)c2)ccc1OCc1c(C)noc1C as the compound, how does the Potency [1] read?
The Potency was inconclusive [inhibitor, partial curve, poor fit].

Which Potency [1] does the source give for Cc1ccc(CN2CC(C(=O)N(Cc3nnc(-c4ccccc4Cl)o3)C3CC3)CC2=O)cc1 (stereo not given) here?
Its Potency is “inactive”.

Which Potency [1] does the source give for CCOC(=O)c1sc(C)c2c1NC(C)(c1cccc3ccccc13)NC2=O (stereo not given) here?
Its Potency is inconclusive [inhibitor, single point].
